Over roughly 33,000 sequences, “E-score (-0.5 to 0.5)” has its median near -0.021; the highest 2% begin near 0.32. The list shows a part of the results.
biological target: T1, Zap1 (UniProt P47043); assay: PBM E-score (8-mer binding enrichment) (E-score (-0.5 to 0.5)); higher = stronger / more preferred TF binding; most listed sequences are background and not binding sites; conditions: protein concentration: 200 nM; construct: GST-full length
T1 sequence: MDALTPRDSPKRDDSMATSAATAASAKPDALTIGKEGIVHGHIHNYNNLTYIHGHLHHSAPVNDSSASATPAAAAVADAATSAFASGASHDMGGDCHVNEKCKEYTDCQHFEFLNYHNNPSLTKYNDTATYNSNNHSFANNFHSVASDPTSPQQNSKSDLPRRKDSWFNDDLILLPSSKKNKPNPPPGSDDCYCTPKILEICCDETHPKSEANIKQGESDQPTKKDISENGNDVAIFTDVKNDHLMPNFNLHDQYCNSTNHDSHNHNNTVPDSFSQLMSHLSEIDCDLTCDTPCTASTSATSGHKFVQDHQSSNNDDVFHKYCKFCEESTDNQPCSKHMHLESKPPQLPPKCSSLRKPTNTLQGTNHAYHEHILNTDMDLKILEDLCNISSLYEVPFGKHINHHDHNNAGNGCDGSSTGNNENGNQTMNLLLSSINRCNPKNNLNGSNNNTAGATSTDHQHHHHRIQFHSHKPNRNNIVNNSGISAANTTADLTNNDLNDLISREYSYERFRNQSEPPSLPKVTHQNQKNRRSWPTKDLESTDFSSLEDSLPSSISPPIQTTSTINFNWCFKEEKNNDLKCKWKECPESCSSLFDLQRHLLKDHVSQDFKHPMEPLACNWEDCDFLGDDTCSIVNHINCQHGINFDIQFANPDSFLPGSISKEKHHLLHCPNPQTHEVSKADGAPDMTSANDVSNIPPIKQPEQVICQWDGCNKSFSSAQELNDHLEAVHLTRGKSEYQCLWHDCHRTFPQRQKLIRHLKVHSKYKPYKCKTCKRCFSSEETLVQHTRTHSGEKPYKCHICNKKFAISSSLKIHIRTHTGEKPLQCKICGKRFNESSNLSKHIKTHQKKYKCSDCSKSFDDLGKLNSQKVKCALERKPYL
Description: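 Universal 'all 10-mer' protein binding microarrays (Agilent AMADID 015681) probed with GST-tagged S. cerevisiae TFs (full-length or DBD) made by in vitro transcription/translation (PURExpress), about 100-200 nM. Bound TF was detected with fluorescent anti-GST. Each ungapped 8-mer (which stands for itself and its reverse complement) is scored by the PBM enrichment score (E-score), a modified Wilcoxon-Mann-Whitney statistic from -0.5 to +0.5, computed with the Universal PBM Analysis Suite. Scale: above 0.35 generally sequence-specific binding.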

Row | Sequence | PBM E-score
1 | CTGCAGTA | -0.22
2 | TCTAAAAA | 0.168
3 | ACCTTTTC | 0.254
4 | CCCGCCGC | 0.202
5 | TGAAAGAA | 0.158
6 | GTTTGACA | -0.0724
7 | AAGGGGAG | -0.298
8 | CGGGTAGA | 0.133
9 | CATCACCA | 0.246
10 | ATTTGCGA | 0.0692
11 | CCTCCACG | 0.0201
12 | CTACCGAC | -0.0369
13 | ATTTTGAC | 0.203
14 | GCCCAGCC | -0.197
15 | AAAACGGT | 0.109
16 | GACTATAA | 0.139
17 | ACTGATCC | -0.136
18 | AACCACCC | 0.353
19 | GCAAAACC | 0.0439
20 | AAACAAAT | 0.179
21 | CTGAAACC | 0.268
22 | CAATTACG | -0.0184
23 | AATCACAG | -0.0415
24 | CCCTAGAA | 0.177
25 | ACACGTAT | -0.0502

Row | Sequence | PBM E-score
26 | CAGAACGG | -0.0637
27 | CGTCCCGA | -0.14
28 | CGAAATTC | -0.0272
29 | AAGTACCT | 0.213
30 | ATGCTGGC | -0.157
31 | ACGATCAC | 0.116
32 | AATAGCCC | -0.0444
33 | ATTGGTTA | 0.402
34 | CGGAAATA | 0.104
35 | AACTGCTT | -0.148
36 | TACGCGGA | -0.102
37 | ACGCCGCG | 0.0461
38 | AGAATGTA | 0.0274
39 | GGTTGCAA | 0.301
40 | CCCGAACA | -0.0104
41 | GAGGATAA | -0.0105
42 | ACTGAACA | 0.133
43 | AGGGCTGA | -0.15
44 | TACACATA | -0.0262
45 | AGGTAGCG | 0.232
46 | GCATATGC | -0.213
47 | ACGCCGGC | 0.18
48 | AGCAAGAG | -0.163
49 | AAGTAAAT | 0.211
50 | ATGGACAC | 0.201

Row | Sequence | PBM E-score
51 | CTGCTTTC | -0.131
52 | AGGGCCGA | -0.13
53 | ACGCGGCA | -0.0868
54 | CGGTAGCA | 0.117
55 | CAGGATGC | -0.182
56 | AGCTGTGC | -0.254
57 | AAGCATGC | -0.137
58 | GAAAAGAA | 0.0406
59 | ATTTTCCC | -0.0341
60 | GGCACACC | -0.194
61 | CGACTAAG | -0.121
62 | GTATTTAA | 0.19
63 | TCTACGAA | -0.068
64 | TCTGCAGA | -0.155
65 | ATTTGATA | 0.0282
66 | AGCATACT | -0.237
67 | AGATCTAG | -0.26
68 | CCATACTA | 0.174
69 | CTCGTACC | -0.0636
70 | ACGTAAGG | -0.112
71 | GCCTCGAC | -0.0283
72 | ATACACCA | 0.114
73 | ATAGATAT | -0.0181
74 | ACAACCTG | 0.23
75 | AGTGTCGC | -0.0555

Row | Sequence | PBM E-score
76 | AGTGGGAG | -0.312
77 | ATCGCAAA | -0.0123
78 | GAGCACTA | -0.227
79 | AGCGTTGG | -0.0819
80 | GCTGCCCA | -0.0561
81 | AAGATGGA | -0.202
82 | GCTAATCA | 0.00226
83 | CGAAGTCA | -0.104
84 | ATTCGCTC | -0.179
85 | TATTGCCA | -0.0876
86 | GCGCTGGA | -0.129
87 | ACAGCTCC | -0.18
88 | GATGTTCC | -0.0651
89 | AAATGTAG | 0.0123
90 | TACAATCA | -0.073
91 | ATTCGTAC | 0.0885
92 | AAGAGATA | -0.0556
93 | GATCGACA | 0.0122
94 | CGTGCTAA | -0.0305
95 | CCATTTGA | 0.0279
96 | ACCCTCCC | 0.339
97 | AATCTTGT | -0.0484
98 | GTCGCAGA | 0.0891
99 | TACTCCAA | 0.155
100 | CTTCAGTC | -0.0626

Row | Sequence | PBM E-score
101 | TCTTCGCA | -0.158
102 | AACGAAGG | -0.266
103 | ACGTCAAC | -0.045
104 | GATCAGGC | -0.163
105 | ATTGAGTG | -0.015
106 | AGTCTAGA | -0.295
107 | TCCAAGGA | -0.119
108 | CCTTCAGC | -0.0407
109 | CCGCGGAG | -0.0389
110 | CAGACATA | -0.126
111 | ACTAGCGA | -0.0181
112 | AAACGGCA | -0.169
113 | ATACATCA | 0.00689
114 | GTCTTCAA | -0.0252
115 | GGGCTCAA | -0.0971
116 | CAGAGGTA | 0.177
117 | GATGCCGC | -0.212
118 | GGATCCAC | -0.133
119 | GGCGTAGA | -0.194
120 | CGAGCTCG | -0.067
121 | CTAACACC | -0.0752
122 | AATTCGCA | 0.0147
123 | GATCACGA | 0.0169
124 | CCCTACGG | 0.313
125 | CGCGTAGC | -0.304

Row | Sequence | PBM E-score
126 | GACACTAC | 0.0501
127 | CTAGAATA | 0.12
128 | ATACTCGC | 0.0732
129 | GCAATGGA | -0.0524
130 | ACTACCGG | 0.0974
131 | AAACAAGT | 0.147
132 | CTGGGGCC | 0.0294
133 | AGCCCCGC | -0.0894
134 | AAGTGGCA | -0.0883
135 | GATGCCCC | -0.25
136 | CTGCCTCA | -0.201
137 | GATTAGCA | -0.0698
138 | ATTGACCA | 0.0962
139 | TCGCAACA | -0.0496
140 | CGCTAATA | -0.087
141 | GTTAAACA | 0.217
142 | GCACCCCC | -0.147
143 | ACCGGGTG | 0.168
144 | ACCTGACG | -0.0534
145 | ACCGTGAT | 0.185
146 | TGGTCACA | 0.231
147 | GGGGAACC | 0.0229
148 | AGCAACCT | 0.155
149 | CTGACCAA | 0.273
150 | AGCAGTAC | 0.0549

Row | Sequence | PBM E-score
151 | ACCACGTC | -0.0734
152 | CTCTCGTA | -0.171
153 | ATGTTGAG | -0.102
154 | AACTTTGG | 0.0932
155 | ACCACATC | 0.2
156 | GCAATTCC | -0.147
157 | AACAGGTG | -0.135
158 | GGGGTACA | 0.249
159 | ACAATACC | 0.252
160 | CCTCAGAC | 0.0503
161 | CCAAATCG | -0.113
162 | ATATCTGC | -0.0972
163 | ACGATAAA | -0.04
164 | ACGTCCCT | -0.0863
165 | AGAGGCTG | -0.0528
166 | AAAGTAGG | -0.0759
167 | ACATGTAA | 0.153
168 | AACTCTCT | -0.00923
169 | GCCTTGGA | -0.11
170 | GTTGACTA | -0.0663
171 | ACTGCCCG | -0.227
172 | TAGGCCCA | -0.142
